Measured values from patent publication US9586962B2, “Disubstituted octahydropyrrolo [3,4-C] pyrroles as orexin receptor modulators” (Janssen Pharmaceutica NV, priority 2011, dated 2017).

Target: human orexin 1 receptor (Homo sapiens (Human), UniProt O43613)
Details: read-out: OR 1 Ki, radioligand competition binding

Chain of UniProt O43613 (O43613 whole entry): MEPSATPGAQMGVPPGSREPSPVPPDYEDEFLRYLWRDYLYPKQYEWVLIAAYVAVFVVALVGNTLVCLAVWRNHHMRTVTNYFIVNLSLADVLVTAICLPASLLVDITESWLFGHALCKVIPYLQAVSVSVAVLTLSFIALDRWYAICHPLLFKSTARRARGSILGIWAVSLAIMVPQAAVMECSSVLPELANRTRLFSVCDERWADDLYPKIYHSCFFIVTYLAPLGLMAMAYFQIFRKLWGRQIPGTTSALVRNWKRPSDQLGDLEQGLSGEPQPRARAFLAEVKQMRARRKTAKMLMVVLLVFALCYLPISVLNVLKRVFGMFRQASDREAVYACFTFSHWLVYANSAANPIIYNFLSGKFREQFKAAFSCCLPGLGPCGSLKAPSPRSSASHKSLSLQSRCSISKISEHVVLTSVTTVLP

Row | Compound | Ki
1 | Cc1cc(C)nc(N2CC3CN(C(=O)c4ncccc4C(F)(F)F)CC3C2)n1 (stereo not drawn) [Example 413, 2-(4,6-Dimethylpyrimidin-2-yl)-5-{[3-(trifluoromethyl)pyridin-2-yl]carbonyl}octahydropyrrolo[3,4-c]pyrrole] | 10 µM
2 | CCOc1ccc(C)nc1C(=O)N1CC2CN(c3nc(C)cc(C)n3)CC2C1 (stereo not drawn) [Example 414, 2-(4,6-Dimethylpyrimidin-2-yl)-5-[(3-ethoxy-6-methylpyridin-2-yl)carbonyl]octahydropyrrolo[3,4-c]pyrrole] | 10 µM
3 | CCOc1ncccc1C(=O)N1CC2CN(c3nc(C)cc(C)n3)CC2C1 (stereo not drawn) [Example 415, 2-(4,6-Dimethylpyrimidin-2-yl)-5-[(2-ethoxypyridin-3-yl)carbonyl]octahydropyrrolo[3,4-c]pyrrole] | 9 µM
4 | Cc1nc(N(C)C)cc(N2CC3CN(C(=O)c4cccc(F)c4-n4nccn4)CC3C2)n1 (stereo not drawn) [Example 416, 6-[5-{[3-Fluoro-2-(2H-1,2,3-triazol-2-yl)phenyl]carbonyl}hexahydropyrrolo[3,4-c]pyrrol-2(1H)-yl]-N,N,2-trimethylpyrimidin-4-amine] | 5 µM
5 | Cc1nc(N(C)C)cc(N2CC3CN(C(=O)c4ccc(F)cc4-n4nccn4)CC3C2)n1 (stereo not drawn) [Example 417, 6-[5-{[4-Fluoro-2-(2H-1,2,3-triazol-2-yl)phenyl]carbonyl}hexahydropyrrolo[3,4-c]pyrrol-2(1H)-yl]-N,N,2-trimethylpyrimidin-4-amine] | 1.01 µM
6 | Cc1nc(N(C)C)cc(N2CC3CN(C(=O)c4c(F)cccc4-n4nccn4)CC3C2)n1 (stereo not drawn) [Example 418, 6-[5-{[2-Fluoro-6-(2H-1,2,3-triazol-2-yl)phenyl]carbonyl}hexahydropyrrolo[3,4-c]pyrrol-2(1H)-yl]-N,N,2-trimethylpyrimidin-4-amine] | 0.741 µM
7 | CCCOc1ccc(C)nc1C(=O)N1CC2CN(c3nc(C)cc(C)n3)CC2C1 (stereo not drawn) [Example 419, 2-(4,6-Dimethylpyrimidin-2-yl)-5-[(6-methyl-3-propoxypyridin-2-yl)carbonyl]octahydropyrrolo[3,4-c]pyrrole] | 10 µM
8 | CCOc1ccc(C)nc1C(=O)N1CC2CN(c3cc(N(C)C)nc(C)n3)CC2C1 (stereo not drawn) [Example 420, 6-{5-[(3-Ethoxy-6-methylpyridin-2-yl)carbonyl]hexahydro-pyrrolo[3,4-c]pyrrol-2(1H)-yl}-N,N,2-trimethylpyrimidin-4-amine] | 10 µM
9 | Cc1cc(C)nc(N2CC3CN(C(=O)c4nc(C)ccc4-c4ncccn4)CC3C2)n1 (stereo not drawn) [Example 421, 2-(4,6-Dimethylpyrimidin-2-yl)-5-[(6-methyl-3-pyrimidin-2-ylpyridin-2-yl)carbonyl]octahydropyrrolo[3,4-c]pyrrole] | 5.92 µM
10 | Cc1cc(C)nc(N2CC3CN(C(=O)c4nc(C)ccc4-c4ncc(C)o4)CC3C2)n1 (stereo not drawn) [Example 422, 2-(4,6-Dimethylpyrimidin-2-yl)-5-{[6-methyl-3-(5-methyl-1,3-oxazol-2-yl)pyridin-2-yl]carbonyl}octahydropyrrolo[3,4-c]pyrrole] | 10 µM
11 | COc1ccc(-n2nccn2)c(C(=O)N2CC3CN(c4cc(N(C)C)nc(C)n4)CC3C2)c1 (stereo not drawn) [Example 423, 6-[5-{[5-Methoxy-2-(2H-1,2,3-triazol-2-yl)phenyl]carbonyl}hexahydropyrrolo[3,4-c]pyrrol-2(1H)-yl]-N,N,2-trimethylpyrimidin-4-amine] | 2.86 µM
12 | CCCOc1ccc(C)nc1C(=O)N1CC2CN(c3cc(N(C)C)nc(C)n3)CC2C1 (stereo not drawn) [Example 424, N,N,2-Trimethyl-6-{5-[(6-methyl-3-propoxypyridin-2-yl)carbonyl]hexahydropyrrolo[3,4-c]pyrrol-2(1H)-yl}pyrimidin-4-amine] | 10 µM
13 | Cc1nc(N(C)C)cc(N2CC3CN(C(=O)c4cc(F)ccc4-c4ncccn4)CC3C2)n1 (stereo not drawn) [Example 425, 6-{5-[(5-Fluoro-2-pyrimidin-2-ylphenyl)carbonyl]hexahydropyrrolo[3,4-c]pyrrol-2(1H)-yl}-N,N,2-trimethylpyrimidin-4-amine] | 1.24 µM
14 | Cc1nc(N(C)C)cc(N2CC3CN(C(=O)c4c(F)cccc4-c4ncccn4)CC3C2)n1 (stereo not drawn) [Example 426, 6-{5-[(2-Fluoro-6-pyrimidin-2-ylphenyl)carbonyl]hexahydropyrrolo[3,4-c]pyrrol-2(1H)-yl}-N,N,2-trimethylpyrimidin-4-amine] | 0.166 µM
15 | Cc1nc(N(C)C)cc(N2CC3CN(C(=O)c4cccc(F)c4-c4ncccn4)CC3C2)n1 (stereo not drawn) [Example 427, 6-{5-[(3-Fluoro-2-pyrimidin-2-ylphenyl)carbonyl]hexahydropyrrolo[3,4-c]pyrrol-2(1H)-yl}-N, N,2-trimethylpyrimidin-4-amine] | 1.26 µM
16 | Cc1ccc(-c2ncccn2)c(C(=O)N2CC3CN(c4cc(N(C)C)nc(C)n4)CC3C2)n1 (stereo not drawn) [Example 428, N,N,2-Trimethyl-6-{5-[(6-methyl-3-pyrimidin-2-ylpyridin-2-yl)carbonyl]hexahydropyrrolo[3,4-c]pyrrol-2(1H)-yl}pyrimidin-4-amine] | 3.16 µM
17 | Cc1ccc(-c2ncc(C)o2)c(C(=O)N2CC3CN(c4cc(N(C)C)nc(C)n4)CC3C2)n1 (stereo not drawn) [Example 429, N,N,2-Trimethyl-6-[5-{[6-methyl-3-(5-methyl-1,3-oxazol-2-yl)pyridin-2-yl]carbonyl}hexahydropyrrolo[3,4-c]pyrrol-2(1H)-yl]pyrimidin-4-amine] | 9 µM

Row | Compound | Ki
18 | CCCOc1ccc(C)cc1C(=O)N1CC2CN(c3cc(N(C)C)nc(C)n3)CC2C1 (stereo not drawn) [Example 430, N,N,2-Trimethyl-6-{5-[(5-methyl-2-propoxyphenyl)carbonyl]hexahydropyrrolo[3,4-c]pyrrol-2(1H)-yl}pyrimidin-4-amine] | 5 µM
19 | Cc1cc(C)nc(N2CC3CN(C(=O)c4cccc(F)c4-c4nnc[nH]4)CC3C2)n1 (stereo not drawn) [Example 432, 2-(4,6-Dimethylpyrimidin-2-yl)-5-{[3-fluoro-2-(1H-1,2,4-triazol-5-yl)phenyl]carbonyl}octahydropyrrolo[3,4-c]pyrrole] | 3.09 µM
20 | Cc1cc(C)nc(N2CC3CN(C(=O)c4ccccc4-c4cn(Cc5ccccc5)nn4)CC3C2)n1 (stereo not drawn) [Example 434, 2-{[2-(1-Benzyl-1H-1,2,3-triazol-4-yl)phenyl]carbonyl}-5-(4,6-dimethylpyrimidin-2-yl)octahydropyrrolo[3,4-c]pyrrole] | 1.52 µM
21 | COc1ccc(C(=O)N2CC3CN(c4nc(C)cc(CO)n4)CC3C2)c(-n2nccn2)c1 (stereo not drawn) [Example 435, {2-[5-{[4-Methoxy-2-(2H-1,2,3-triazol-2-yl)phenyl]carbonyl}hexahydropyrrolo[3,4-c]pyrrol-2(1H)-yl]-6-methylpyrimidin-4-yl}methanol] | 3.97 µM
22 | Cc1cc(CO)nc(N2CC3CN(C(=O)c4cccc(F)c4-c4nc(C)no4)CC3C2)n1 (stereo not drawn) [Example 436, {2-[5-{[3-Fluoro-2-(3-methyl-1,2,4-oxadiazol-5-yl)phenyl]carbonyl}hexahydropyrrolo[3,4-c]pyrrol-2(1H)-yl]-6-methylpyrimidin-4-yl}methanol] | 2.44 µM
23 | Cc1cc(C)nc(N2CC3CN(C(=O)c4c(F)cccc4-c4nnc[nH]4)CC3C2)n1 (stereo not drawn) [Example 437, 2-(4,6-Dimethylpyrimidin-2-yl)-5-{[2-fluoro-6-(1H-1,2,4-triazol-5-yl)phenyl]carbonyl}octahydropyrrolo[3,4-c]pyrrole] | 10 µM
24 | Cc1cc(C)nc(N2CC3CN(C(=O)c4nc(C)ccc4-n4ccnn4)CC3C2)n1 (stereo not drawn) [Example 439, 2-(4,6-Dimethylpyrimidin-2-yl)-5-{[6-methyl-3-(1H-1,2,3-triazol-1-yl)pyridin-2-yl]carbonyl}octahydropyrrolo[3,4-c]pyrrole] | 10 µM
25 | Cc1noc(-c2c(F)cccc2C(=O)N2CC3CN(c4ncc(F)c(C)n4)CC3C2)n1 (stereo not drawn) [Example 440, 2-{[3-Fluoro-2-(3-methyl-1,2,4-oxadiazol-5-yl)phenyl]carbonyl}-5-(5-fluoro-4-methylpyrimidin-2-yl)octahydropyrrolo[3,4-c]pyrrole] | 5 µM
26 | Cc1nc(N2CC3CN(C(=O)c4ncc(Cl)cc4-n4nccn4)CC3C2)nc(C)c1C (stereo not drawn) [Example 442, 2-{[5-Chloro-3-(2H-1,2,3-triazol-2-yl)pyridin-2-yl]carbonyl}-5-(4,5,6-trimethylpyrimidin-2-yl)octahydropyrrolo[3,4-c]pyrrole] | 1.13 µM
27 | COc1cnc(C(=O)N2CC3CN(c4nc(C)c(C)c(C)n4)CC3C2)c(-n2nccn2)c1 (stereo not drawn) [Example 444, 2-{[5-Methoxy-3-(2H-1,2,3-triazol-2-yl)pyridin-2-yl]carbonyl}-5-(4,5,6-trimethylpyrimidin-2-yl)octahydropyrrolo[3,4-c]pyrrole] | 2.35 µM
28 | Cc1ccc(-c2ncccn2)c(C(=O)N2CC3CN(c4nc(C)c(C)c(C)n4)CC3C2)n1 (stereo not drawn) [Example 445, 2-[(6-Methyl-3-pyrimidin-2-ylpyridin-2-yl)carbonyl]-5-(4,5,6-trimethylpyrimidin-2-yl)octahydropyrrolo[3,4-c]pyrrole] | 1.1 µM
29 | Cc1cc(C)nc(N2CC3CN(C(=O)c4ccc(OC(F)F)cc4-n4nccn4)CC3C2)n1 (stereo not drawn) [Example 446, 2-{[4-(Difluoromethoxy)-2-(2H-1,2,3-triazol-2-yl)phenyl]carbonyl}-5-(4,6-dimethylpyrimidin-2-yl)octahydropyrrolo[3,4-c]pyrrole] | 6.71 µM
30 | CCOc1ncccc1C(=O)N1CC2CN(c3cnc4cc(F)c(F)cc4n3)CC2C1 (stereo not drawn) [Example 447, 2-{5-[(2-Ethoxypyridin-3 yl)carbonyl]hexahydropyrrolo[3,4-c]pyrrol-2(1H)-yl}-6,7-difluoroquinoxaline] | 5.9 µM
31 | CCOc1ncccc1C(=O)N1CC2CN(c3ncc4cc(F)ccc4n3)CC2C1 (stereo not drawn) [Example 448, 2-{5-[(2-Ethoxypyridin-3-yl)carbonyl]hexahydropyrrolo[3,4-c]pyrrol-2(1H)-yl}-6-fluoroquinazoline] | 4.4 µM
32 | O=C(c1cccc(F)c1I)N1CC2CN(c3cnc4cc(F)c(F)cc4n3)CC2C1 (stereo not drawn) [Example 449, 6,7-Difluoro-2-{5-[(3-fluoro-2-iodophenyl)carbonyl]hexahydropyrrolo[3,4-c]pyrrol-2(1H)-yl}quinoxaline] | 1.5 µM
33 | O=C(c1cccc(F)c1-c1ncccc1F)N1CC2CN(c3cnc4cc(F)c(F)cc4n3)CC2C1 (stereo not drawn) [Example 450, 6,7-Difluoro-2-[5-{[3-fluoro-2-(3-fluoropyridin-2-yl)phenyl]carbonyl}hexahydropyrrolo[3,4-c]pyrrol-2(1H)-yl]quinoxaline] | 0.922 µM
